According to the supplement of paper PMC10037445:
Over roughly 2,900 compounds, “IRF Lucia reporter activity, fold change vs agonist alone” has its median near 0.9; the highest 2% begin near 2.8. Some of the results follow.

Experiments:
[1] = test system: RAW-Dual; assay: IRF Lucia reporter activity, fold change vs agonist alone; cytotoxicity flag (confluency mask): not cytotoxic; higher = enhanced IRF activity
How it was run: (§1)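 After 50 nL of library stock was delivered by pin tool to RAW-Dual macrophages (50,000 cells/well, DMEM, 384-well plates), a PRR agonist was added 1 h later and the plates were kept at 37 °C, 5% CO2. Twenty hours later, IRF was read from supernatant by QuantiLuc luminescence and NF-κB by QuantiBlue absorbance at 620 nm. Reporter activity is stated as fold change over agonist-alone wells. Wells with IncuCyte confluency under 70% of agonist controls in both mask sets were counted as cytotoxic.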

[2] = test system: RAW-Dual; assay: IRF Lucia reporter activity, fold change vs agonist alone; higher = enhanced IRF activity; settings: library stock concentration (final ~1000-fold dilution): 10 mM, agonist: MPLA (TLR4) […]
How it was run: as §1

[3] = test system: RAW-Dual; assay: IRF Lucia reporter activity, fold change vs agonist alone; cytotoxicity flag (confluency mask): cytotoxic (confluency <70% of control); higher = enhanced IRF activity
How it was run: as §1

[4] = agonist: 3'3'-cGAMP (STING) 10 ug/mL
[5] = cytotoxicity flag (confluency mask): not cytotoxic

Structure (SMILES): CC(=O)Nc1cccc(-n2c(=O)n(C3CC3)c(=O)c3c(Nc4ccc(I)cc4F)n(C)c(=O)c(C)c32)c1 (library stock concentration (final ~1000-fold dilution): 10 mM)
- IRF Lucia reporter activity [1, 4]: 0.731
- IRF Lucia reporter activity ([1]; agonist: LPS (TLR4) 0.1 ug/mL): 1.96

Structure (SMILES): CC(=O)Nc1cccc(-n2c(=O)n(C3CC3)c(=O)c3c(Nc4ccc(I)cc4F)n(C)c(=O)c(C)c32)c1
- IRF Lucia reporter activity [2, 5]: 2.57

Structure (SMILES): Cl.Cn1cc(C(=O)C2CCc3nc[nH]c3C2)c2ccccc21 (stereo not drawn) (library stock concentration (final ~1000-fold dilution): 10 mM)
- IRF Lucia reporter activity [1, 4]: 1.01
- IRF Lucia reporter activity ([1]; agonist: LPS (TLR4) 0.1 ug/mL): 0.582

Structure (SMILES): Cl.Cn1cc(C(=O)C2CCc3nc[nH]c3C2)c2ccccc21 (stereo not drawn)
- IRF Lucia reporter activity [2, 5]: 1.06

Structure (SMILES): COc1c(O[C@@H]2O[C@H](CO)[C@@H](O)[C@H](O)[C@H]2O)cc2oc(-c3ccc(O)cc3)cc(=O)c2c1O (library stock concentration (final ~1000-fold dilution): 10 mM)
- IRF Lucia reporter activity [1, 4]: 1.05
- IRF Lucia reporter activity ([1]; agonist: LPS (TLR4) 0.1 ug/mL): 0.673

Structure (SMILES): CC(C)CC1NC(=O)C(C(C)C)NC(=O)C2CCCN2C(=O)C(CC(=O)O)NC(=O)C(Cc2c[nH]c3ccccc23)NC1=O (stereo not drawn) (library stock concentration (final ~1000-fold dilution): 10 mM)
- IRF Lucia reporter activity [1, 4]: 1.23
- IRF Lucia reporter activity ([1]; agonist: LPS (TLR4) 0.1 ug/mL): 1.01

Structure (SMILES): CC[N+](C)(C)c1cccc(O)c1
- IRF Lucia reporter activity [2, 5]: 1.06

Structure (SMILES): CC[N+](C)(C)c1cccc(O)c1 (library stock concentration (final ~1000-fold dilution): 10 mM)
- IRF Lucia reporter activity [1, 4]: 0.97
- IRF Lucia reporter activity ([1]; agonist: LPS (TLR4) 0.1 ug/mL): 0.769

Structure (SMILES): CCN(CCO)CCCOc1ccc2c(Nc3cc(CC(=O)Nc4cccc(F)c4)n[nH]3)ncnc2c1 (library stock concentration (final ~1000-fold dilution): 10 mM)
- IRF Lucia reporter activity [1, 4]: 1.16
- IRF Lucia reporter activity ([1]; agonist: LPS (TLR4) 0.1 ug/mL): 0.365

Structure (SMILES): CCN(CCO)CCCOc1ccc2c(Nc3cc(CC(=O)Nc4cccc(F)c4)n[nH]3)ncnc2c1
- IRF Lucia reporter activity [2, 5]: 1.01

Structure (SMILES): CC1(C)CC[C@]2(C(=O)O)CC[C@]3(C)C(=CC[C@@H]4[C@@]5(C)C[C@@H](O)[C@H](O)C(C)(C)[C@@H]5CC[C@]43C)[C@@H]2C1 (library stock concentration (final ~1000-fold dilution): 10 mM)
- IRF Lucia reporter activity [1, 4]: 0.92
- IRF Lucia reporter activity ([1]; agonist: LPS (TLR4) 0.1 ug/mL): 1.47

Structure (SMILES): OC(Cn1cncn1)(Cn1cncn1)c1ccc(F)cc1F
- IRF Lucia reporter activity [2, 5]: 1.01

Structure (SMILES): OC(Cn1cncn1)(Cn1cncn1)c1ccc(F)cc1F (library stock concentration (final ~1000-fold dilution): 10 mM)
- IRF Lucia reporter activity [1, 4]: 1.06
- IRF Lucia reporter activity ([1]; agonist: LPS (TLR4) 0.1 ug/mL): 0.92

Structure (SMILES): O=C1NC(=O)C(c2cnc3ccccn23)=C1c1cn2c3c(cc(F)cc13)CN(C(=O)N1CCCCC1)CC2
- IRF Lucia reporter activity [2, 5]: 0.0787

Structure (SMILES): O=C1NC(=O)C(c2cnc3ccccn23)=C1c1cn2c3c(cc(F)cc13)CN(C(=O)N1CCCCC1)CC2 (library stock concentration (final ~1000-fold dilution): 10 mM)
- IRF Lucia reporter activity [1, 4]: 0.0446
- IRF Lucia reporter activity ([1]; agonist: LPS (TLR4) 0.1 ug/mL): 0.0791

Structure (SMILES): CC1CCC2C(C)C(OC(=O)CCC(=O)O)OC3OC4(C)CCC1C32OO4 (stereo not drawn) (library stock concentration (final ~1000-fold dilution): 10 mM)
- IRF Lucia reporter activity [1, 4]: 0.638
- IRF Lucia reporter activity ([1]; agonist: LPS (TLR4) 0.1 ug/mL): 0.706

Structure (SMILES): CC1CCC2C(C)C(OC(=O)CCC(=O)O)OC3OC4(C)CCC1C32OO4 (stereo not drawn)
- IRF Lucia reporter activity [2, 5]: 0.737

Structure (SMILES): Cc1ccc(S(=O)(=O)c2ccc([N+](=O)[O-])o2)cc1
- IRF Lucia reporter activity ([2]; cytotoxicity flag (confluency mask): cytotoxic (confluency <70% of control)): 0.0157

Structure (SMILES): Cc1ccc(S(=O)(=O)c2ccc([N+](=O)[O-])o2)cc1 (library stock concentration (final ~1000-fold dilution): 10 mM)
- IRF Lucia reporter activity [3, 4]: 0.014
- IRF Lucia reporter activity ([3]; agonist: LPS (TLR4) 0.1 ug/mL): 0.01

Structure (SMILES): CC(C)(C(=O)O)c1ccc(C(O)CCCN2CCC(C(O)(c3ccccc3)c3ccccc3)CC2)cc1.Cl (stereo not drawn)
- IRF Lucia reporter activity [2, 5]: 1.05

Structure (SMILES): CC(C)(C(=O)O)c1ccc(C(O)CCCN2CCC(C(O)(c3ccccc3)c3ccccc3)CC2)cc1.Cl (stereo not drawn) (library stock concentration (final ~1000-fold dilution): 10 mM)
- IRF Lucia reporter activity [1, 4]: 1.07
- IRF Lucia reporter activity ([1]; agonist: LPS (TLR4) 0.1 ug/mL): 0.969

Structure (SMILES): Cc1cn[nH]c1
- IRF Lucia reporter activity [2, 5]: 0.974

Structure (SMILES): Cc1cn[nH]c1 (library stock concentration (final ~1000-fold dilution): 10 mM)
- IRF Lucia reporter activity [1, 4]: 1.03
- IRF Lucia reporter activity ([1]; agonist: LPS (TLR4) 0.1 ug/mL): 1.02

Structure (SMILES): O=C(C=Cn1cnc(-c2cc(C(F)(F)F)cc(C(F)(F)F)c2)n1)NNc1ccccn1 (library stock concentration (final ~1000-fold dilution): 10 mM)
- IRF Lucia reporter activity [1, 4]: 0.0591
- IRF Lucia reporter activity ([1]; agonist: LPS (TLR4) 0.1 ug/mL): 0.423

Structure (SMILES): O=C(CCNC(=O)c1ccc(OC(F)(F)F)cc1)NC1CCCc2ccccc21 (stereo not drawn) (library stock concentration (final ~1000-fold dilution): 10 mM)
- IRF Lucia reporter activity [1, 4]: 1.8
- IRF Lucia reporter activity ([1]; agonist: LPS (TLR4) 0.1 ug/mL): 1.91

Structure (SMILES): O=C(Nc1ccccc1Br)NC1CCN(c2ccc(C(F)(F)F)cn2)C1 (stereo not drawn) (library stock concentration (final ~1000-fold dilution): 10 mM)
- IRF Lucia reporter activity [1, 4]: 0.938
- IRF Lucia reporter activity ([1]; agonist: LPS (TLR4) 0.1 ug/mL): 0.88

Structure (SMILES): O=C(Nc1ccccc1Br)NC1CCN(c2ccc(C(F)(F)F)cn2)C1 (stereo not drawn)
- IRF Lucia reporter activity [2, 5]: 1.38
